# Test results as given in publication PMC6212790.
# The other results are listed elsewhere or left out. At the low end of the ranking the order means little.
# Target: T1, GST-Rok-C97-191 (UniProt O34857)
# T1 sequence: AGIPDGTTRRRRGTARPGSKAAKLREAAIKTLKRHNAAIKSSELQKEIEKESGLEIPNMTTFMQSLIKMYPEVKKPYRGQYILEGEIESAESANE
# Experiment: protein binding microarray;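 also: rank score from −0.5 (least bound) to 0.5 (best bound)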
# Settings: Rok is a gene silencer of Bacillus subtilis; high values mean tight binding; most listed sequences are background and not binding sites; double strand, one strand shown
row,Sequence,binding signal [E-score]
1,ATCCCACA,-0.0109
2,CACGGTAG,0.244
3,AGCGACCG,-0.293
4,GATGGCCA,0.0347
5,AGGGACTG,-0.198
6,CAGACCCG,-0.212
7,TCGGACGA,-0.145
8,GCTGCGGA,-0.137
9,AGGACGCG,-0.208
10,AGTTTGAT,0.106
11,TACTTACA,0.31
12,GAACCCCC,-0.385
13,GTCGCCCA,-0.154
14,ACTCGGCG,-0.0249
15,TCGGTAAA,0.173
16,CCACGGTA,0.119
17,CAACCTAC,0.263
18,ATAGGTTG,0.0517
19,CAGTGTCC,-0.11
20,AGGTAGTA,0.328
21,AGTCTTCA,0.027
22,CACGGGCC,-0.12
23,CCGGGTAC,-0.0882
24,CAGCGTCG,-0.222
25,TAGTGGGA,0.119

row,Sequence,binding signal [E-score]
1,CTGGAGAA,-0.0846
2,GCTATTTA,0.153
3,TCCAGGAA,-0.1
4,ACTAGGGC,-0.143
5,GACGGGCC,-0.213
6,CTGACGCA,-0.195
7,GTACAGAC,-0.0134
8,GTGAGACA,-0.0895
9,GGCTTAGA,-0.132
10,CATATCAA,0.0654
11,CGGGAAAA,-0.11
12,CATCCAAA,-0.0954
13,AGGCCTTG,-0.272
14,ATTAACTC,0.124
15,GTACTACA,0.296
16,CCGACCGC,-0.188
17,ATTTGAAA,0.0658
18,GGAATCGA,0.209
19,ATCGCTAG,0.0794
20,AACAGTAG,0.362
21,AATCACTA,0.00836
22,ATCTCACC,-0.0238
23,CCAAGCGC,-0.127
24,CTTTTTCC,-0.109
25,GAATCCAA,-0.125

row,Sequence,binding signal [E-score]
1,CTACCCCA,0.211
2,CCCAGGCG,-0.297
3,AAACATTA,0.152
4,AGCCAAGC,0.0344
5,GCGACTTA,-0.0121
6,CAAGCGCG,-0.21
7,TTAGTGAA,0.221
8,CGGTACTC,0.0561
9,CAGCCCGA,-0.252
10,ATAGGGAT,0.158
11,AGACGTGC,-0.045
12,CTGTGGGA,-0.0971
13,TGATGGCA,-0.158
14,CTGCCAGA,-0.124
15,ACGACAAC,0.0475
16,GCTCTTTA,-0.0791
17,ACGGGATC,-0.0509
18,GCCCTACA,-0.125
19,ATTTCACG,0.1
20,CACATGGG,-0.0676
21,AGGTCTTG,-0.0853
22,CGTGGTCC,-0.232
23,GATACGCA,0.0668
24,AATTTCAC,0.195
25,ACGCAGCC,-0.29

row,Sequence,binding signal [E-score]
1,GCTTGTAC,-0.118
2,AACGAGGC,-0.123
3,ATCGGCTG,0.0324
4,CAGTAGCG,0.213
5,GAGGCATC,-0.112
6,ATCGTGGA,-0.0661
7,GGATACCA,-0.00728
8,AAGCAGCC,-0.116
9,AAACTCGT,0.0896
10,ATGCGAGG,-0.0618
11,AATCACAG,-0.0588
12,GGATGGAA,-0.0273
13,TTGCGAAA,-0.0399
14,AAAGTTCA,0.138
15,ACCTAATA,0.195
16,AAGTTACC,0.239
17,CCAGTCGA,-0.212
18,AAAAAAAC,0.18
19,ATAGCCTC,-0.247
20,CATCATAG,0.00873
21,ACGCTAGG,-0.0315
22,CAGTACAG,0.0142
23,TCTGCTCA,-0.0793
24,GGATAACA,0.104
25,ACCCTCGC,-0.152

row,Sequence,binding signal [E-score]
1,ATTGGCTC,-0.119
2,CGTCTTGA,-0.187
3,ATACAAAA,0.276
4,ACTCTACG,0.0656
5,GCGAGGCA,-0.22
6,CTTCAAAA,-0.0258
7,ATTTTTCG,0.181
8,CACCACGG,-0.0502
9,AATATCTC,0.28
10,ACCATTTA,0.243
11,GATTTTAA,0.145
12,CGTCTCAC,-0.218
13,AAATCACA,0.0755
14,AAGTGGAT,-0.0622
15,TAAAAATA,0.351
16,GGAAACAA,0.0324
17,AACCGAGA,-0.0407
18,AATCCCAA,0.0892
19,AACTGCCG,0.0492
20,CGAAATCA,0.0596
21,CCCAACAA,-0.0671
22,CGTAGAAA,0.338
23,AATAGTTG,0.283
24,CTTTTGCA,-0.053
25,GAGTTAGA,0.246

row,Sequence,binding signal [E-score]
1,AGGCACTG,-0.0549
2,ACATTTAA,0.127
3,GTTCTGAA,-0.0197
4,CACGATGG,-0.148
5,AGCTGACA,-0.204
6,CAGAATAA,0.0544
7,CGGGCACC,-0.305
8,CCGGGTTA,-0.0338
9,CACGTATG,-0.166
10,CTTATTTA,0.184
11,CCGCTGCA,-0.252
12,TCACAGGA,-0.000848
13,GTCTGAAC,-0.11
14,ATAGGCTA,0.138
15,CGTCGGAG,-0.178
16,AGTGCCAC,-0.221
17,CCCGCAAC,-0.266
18,ACAGAATC,0.0493
19,AAGAACTG,-0.0469
20,ACGTCATG,-0.125
21,AATCGACT,-0.0305
22,GGATCGAA,-0.0989
23,TAAGCAAA,0.201
24,AGGACTTA,-0.0949
25,AGATGCCA,-0.00455

row,Sequence,binding signal [E-score]
1,AGTTAATA,0.315
2,CTCGCTGC,-0.118
3,TAACCGAA,0.0668
4,TCAGCAGA,-0.179
5,CCATAGAG,-0.22
6,CATCACGA,-0.0827
7,AAATTCGA,0.119
8,CTAGCGGC,-0.00808
9,AATATGTA,0.375
10,GCGTGGTA,0.0694
11,ACACCTGT,-0.0272
12,GCTCGTAC,0.0903
13,AAAGAGGA,-0.0716
14,ATTTGAGA,0.0906
15,GCTCTAAA,-0.0612
16,AAATATGC,0.165
17,GAGTACCC,-0.135
18,GCCTAAGA,0.00752
19,CCTTTCCC,-0.189
20,AGTGGTTG,-0.0564
21,CAACCCCA,-0.279
22,AATCCTCA,-0.0299
23,GGAACGAC,-0.0248
24,CAATTGGA,-0.069
25,GCGGCCGC,-0.348

row,Sequence,binding signal [E-score]
1,ATGCTCTA,-0.139
2,ACCCGCGC,-0.254
3,ACAAAGCC,0.0136
4,GTGTTCAA,-0.207
5,ATAGATAT,0.415
6,CAGTAACC,-0.00999
7,AAATCATG,-0.0916
8,ACTTACCT,0.127
9,AATCTACC,0.447
10,CACTATGG,0.113
11,CGTCGTGC,-0.178
12,GGCTAATA,-0.0399
13,GTTGGCTA,0.0528
14,CGTTAAAG,-0.0116
15,CGAGGCCC,-0.334
16,CGACATGC,-0.104
17,ACAACGAC,0.0495
18,GACTAACC,0.0497
19,ATGAGGAG,-0.136
20,CCAGCTTA,-0.119
21,AATGTCTA,0.185
22,ACCTAGAG,-0.0396
23,CCAGACTA,0.0562
24,ACGAGACG,-0.0624
25,ACGCATAG,-0.151

row,Sequence,binding signal [E-score]
1,AGCCTCTG,-0.166
2,AGAAGGCC,-0.352
3,CTACCCGC,-0.0513
4,CGACGGCC,-0.129
5,CGGTGTTA,0.173
6,ACTGGGTC,-0.076
7,AGCAGCTA,-0.042
8,AGATGGGC,-0.199
9,TACGGCGA,-0.0698
10,GCGTCGCC,-0.254
11,CGTATCCA,-0.0617
12,AAATTACT,0.358
13,CAGCTACC,-0.0164
14,CAGCACCG,-0.136
15,ACGACTAA,0.0491
16,AACCCGGA,-0.0325
17,GCGCCGTA,-0.0818
18,CCAGTACC,-0.138
19,AGTGTTCG,-0.0831
20,CTTCCTCC,-0.265
21,ACGTGAGG,-0.0106
22,TTAGGGAA,-0.113
23,CAGGCGGG,-0.342
24,GAATCTCC,0.0847
25,AGTACAAC,0.18

row,Sequence,binding signal [E-score]
1,GCACTGGC,-0.241
2,AATCGATC,0.078
3,AAAGCAAT,0.181
4,ATGAGACC,-0.057
5,CTTATGTC,0.034
6,ACCATTAA,0.134
7,GCCGCGCC,-0.222
8,GGCACTCA,-0.145
9,AAGGGAGT,-0.0497
10,ACGCGTGC,-0.189
11,CCGTAAAA,0.105
12,AGCTCGCG,-0.199
13,GGATATAC,0.288
14,CGGTATGC,-0.0795
15,ACAGCTGC,-0.269
16,ATTGGAAG,-0.0627
17,AACAGTAT,0.165
18,ACCACTAT,0.189
19,GATACCAA,0.173
20,GTATCAGA,-0.0961
21,CCTAACAC,-0.0872
22,CGTATAAC,0.152
23,CGGGAGAG,-0.236
24,ATGGAGGA,-0.0415
25,CGCGGTAG,0.00539

row,Sequence,binding signal [E-score]
1,AGATCCCT,0.0375
2,AATTACGG,0.205
3,AGTGTGTA,0.0953
4,ATCACGCG,0.0545
5,AAACGGTG,-0.0447
6,ACAGCTAG,0.118
7,AACGCTTC,-0.296
8,GACGTCGA,-0.118
9,ACTCAAAT,-0.0178
10,GGAACAAC,-0.133
11,ACCGCGCC,-0.254
12,CTATTCTA,0.287
13,AGACGACC,-0.145
14,ATGAGATA,0.234
15,GATAGGTA,0.158
16,CCTATGTC,0.00264
17,GAATGATA,0.29
18,CATTGCTA,0.118
19,AAACTTGG,-0.108
20,AGAGACGA,-0.286
21,TTGCAAAA,-0.0136
22,AGTCTAGG,-0.139
23,AGAACGGA,-0.029
24,GTGGTCAA,-0.14
25,TCAAAAGA,-0.163

row,Sequence,binding signal [E-score]
1,TCGGAAGA,-0.0901
2,GTATATAC,0.43
3,CTTGCGAC,-0.167
4,AATACAGC,-0.0291
5,CTGAACAG,-0.183
6,CGAGGTAG,0.0918
7,GCGTCAGC,-0.296
8,CAGGACTG,-0.147
9,AGGGTAAG,-0.0906
10,GGTTAGGA,-0.165
11,ACCGATGA,-0.0368
12,CATCTGTC,-0.276
13,GAGGACCC,-0.299
14,GGCTCTGA,-0.223
15,AGCGAAGC,-0.206
16,AGAGCCCC,-0.19
17,ATTCGACA,0.12
18,GGGATGAC,0.0332
19,CCGGGAAG,-0.133
20,AAAAGCGG,-0.034
21,GGGTCACC,-0.279
22,AAATCCCG,0.00351
23,CGAAGACG,-0.202
24,CTTTGGAA,0.00643
25,GCATAACC,0.0668

row,Sequence,binding signal [E-score]
1,AGAGACAG,-0.118
2,AAGAGCTG,-0.0939
3,CCCTGGTC,-0.227
4,GGAGCAGA,-0.154
5,AGATTGTA,0.227
6,CATTGAGA,-0.0375
7,ACGAAGTC,-0.153
8,ATAAGGCG,0.0559
9,AACGCATG,-0.0952
10,TACTACGA,0.291
11,TACGCGGA,0.049
12,CCCGCTCG,-0.26
13,AGCTAATC,0.102
14,CCGCGGGC,-0.218
15,CACACAGG,-0.154
16,CAGCGACA,-0.0598
17,ATACCTGG,0.0834
18,CCCCGTAG,-0.149
19,GCACAATA,0.27
20,TTATGAAA,0.211
21,ACTGCACC,0.128
22,CTTAATCC,-0.0759
23,ATTTTGGC,-0.11
24,AGATCGTC,-0.0785
25,AGCGCCAT,-0.149

row,Sequence,binding signal [E-score]
1,AGTGTCCA,-0.00668
2,AGCACATG,-0.0988
3,CTAGAATC,0.241
4,AGGTCCGG,-0.256
5,TACGAGTA,0.28
6,CACCAGGG,-0.265
7,CGGTGACA,-0.0541
8,CCGTACGA,0.0427
9,ACCTTGTA,0.0183
10,GTACAAAA,0.243
11,ACTCTGAG,-0.242
12,ATTTGAAC,0.0178
13,CACGGTCA,-0.0748
14,CGCCCACG,-0.176
15,TGGGCCCA,-0.312
16,AAGAATAC,0.159
17,GGCTGCGA,-0.0517
18,AGGTACTG,0.0073
19,TACTATGA,0.213
